For assay [1], the system named is KB-3-1. Put plainly: growth inhibition relative to DMSO control (SRB); cervical cancer cells: KB-3-1 is the parent and KB-V1 overexpresses MDR1; SRB is the sulforhodamine B stain; higher = more growth inhibition. The conditions noted are these: 1 µM; 72 h.
Assay [2] relates to KB-V1. The description is as above. Particulars: 1 µM; 72 h.

Each structure is given as a SMILES string. Several values for one entry are separate records, joined by “and”; a condition that tells them apart may be missing. Identical values can stand only once. Counter-ions that a name gives are not always drawn. The list shows a part of the results. Most values come without repeats; read them as rough.
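Also: Read-out is SRB optical density at 490 nm, with the control being wells given 0.5% DMSO vehicle, and compound added one day after cells were plated.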

`CCn1c(N)c(C(=O)NC)c(=O)c2ccc(C#CC(C)(O)COC)nc21` (stereo unspecified): the growth inhibition in assay [1] amounted to 15.1%; in assay [2], 11.9%.
`Oc1ccc(Nc2nc(-c3ccc(Cl)cc3)cs2)cc1`: the growth inhibition in assay [1] and in assay [2] was less than 0% throughout.
In the case of `CC(=O)Nc1nc(C)c(-c2ccc(Cl)c(S(=O)(=O)NCCO)c2)s1`, the figures for the growth inhibition in assay [1] and in assay [2] were 41.7% and 19.2%, respectively.
With `COc1ccccc1N1CCN(CC(O)COc2cccc3ccccc23)CC1` (stereo unspecified) [Naftopidil DiHCl], the growth inhibition was 8.77% in assay [1] and 38.1% in assay [2].
For the compound `COC(=O)N1CCN(Cc2cccc(NC(=O)Nc3ccc(C)nc3)c2F)CC1`, the growth inhibition was found to be 26% in assay [1] and 9.57% in assay [2].
Take `COC[C@H](NC(=O)c1cnc(C)s1)C(=O)N[C@@H](COC)C(=O)N[C@@H](Cc1ccccc1)C(=O)[C@@]1(C)CO1` [Oprozomib (ONX 0912)]: the growth inhibition in assay [1] and in assay [2] was 100% throughout.
As for `CN(C)CCC(c1ccc(Cl)cc1)c1ccccn1` (stereo unspecified) [Chlorpheniramine Maleate], the figures for the growth inhibition in assay [1] and in assay [2] were 52.5% and 24%, respectively.
On to `COCCOc1ccc2c(c1)ncn2-c1ccc2cccc(N3CCC(N)CC3)c2n1`, for which the growth inhibition in assay [1] stood at 68.5%; in assay [2], 18.4%.
Take `Cc1cc(C(C)(C)C)c(O)c(C)c1CC1=NCCN1` [Oxymetazoline HCl]: the growth inhibition in assay [1] is 27.8%; in assay [2], 4.26%.
For `CNC(=O)c1ccc(N2C(=S)N(c3ccc(C#N)c(C(F)(F)F)c3)C(=O)C2(C)C)cc1F` [Enzalutamide (MDV3100)] the same measures were 40.2% and 39.2%.
As to `CC(=O)c1cc([N+](=O)[O-])c(Sc2cccc(Cl)c2Cl)s1`, the growth inhibition in assay [1] and in assay [2] was less than 0% in each case.
For `CC(C(O)c1ccc(O)cc1)N1CCC(Cc2ccccc2)CC1` (stereo unspecified) [Ifenprodil Tartrate], the growth inhibition in assay [1] was 3.41%; in assay [2], less than 0%.
Take `O=C(CCCCCN1C(=O)c2cccc3cccc(c23)C1=O)NO` [Scriptaid]: the figures for the growth inhibition in assay [1] and in assay [2] were 62.6% and 10.5%, respectively.
For `CCOc1ccn(-c2ccc(F)cc2)c(=O)c1C(=O)Nc1ccc(Oc2ccnc(N)c2Cl)c(F)c1` the same measures were 30.7% and 19.3%.
For the compound `OC(CNCC(O)C1CCc2cc(F)ccc2O1)C1CCc2cc(F)ccc2O1` (stereo unspecified) [Nebivolol], the growth inhibition in assay [1] was found to be 28.6%; in assay [2], 25.7%.
For the compound `O=C(NCCS(=O)(=O)c1ccc(C(F)(F)F)cn1)c1ccc(Cl)cc1`, the results for the growth inhibition in assay [1] and in assay [2] were 40.2% and 5.56%, respectively.
On to `C[N+]1(C)CCC(=C(c2ccccc2)c2ccccc2)CC1` [Diphemanil Methylsulfate], for which the figures for the growth inhibition in assay [1] and in assay [2] were 0.562% and 12.1%, respectively.
For `Cc1ccc(F)c(NC(=O)Nc2ccc(-c3cccc4[nH]nc(N)c34)cc2)c1` [Linifanib (ABT-869)] the same measures were 18% and 18.1%.
For `Cc1ccc(NC(=O)c2cccc(N(C)C)c2)cc1NC(=O)c1ccc(O)cc1`, the growth inhibition in assay [1] and in assay [2] was less than 0% each time.
For the compound `CN1CCN(S(=O)(=O)c2ccc(-c3cnc(N)c(C(=O)Nc4cccnc4)n3)cc2)CC1`, the values for the growth inhibition in assay [1] and in assay [2] were 11.7% and 36.7%, respectively.
`CC(=O)Nc1cccc2c1c(Sc1ccc(Cl)cc1)c(C)n2CC(=O)O`: the growth inhibition in assay [1] and in assay [2] was less than 0% each time.
For `C[C@@H]1CCN(C(=O)CC#N)C[C@@H]1N(C)c1ncnc2[nH]ccc12`, the growth inhibition in assay [1] was 15.8% and < 0%.
`COc1cc2ncnc(Oc3cccc(NC(=O)Nc4cc(C(C)(C)C(F)(F)F)on4)c3)c2cc1OC`: the growth inhibition in assay [1] is 44%; in assay [2] it was less than 0%.
As for `Cc1cc(Cn2cnc3c2CC(C(=O)O)N(C(=O)C(c2ccccc2)c2ccccc2)C3)ccc1N(C)C` (stereo unspecified), the growth inhibition was found to be 25.5% in assay [1] and 3.67% in assay [2].
For `FC(F)(F)c1ccc(/C=C/c2nc(COc3ccc(CCCCn4ccnn4)cc3)co2)cc1` [Mubritinib (TAK 165)] the same measures were 16% and 62.6%.
On to `O=C(NCc1ccc(Oc2ccccc2)cc1)c1nc(-c2cc(Br)c(O)c(Br)c2)no1`, for which the growth inhibition in assay [1] and in assay [2] was less than 0% each time.
For the compound `COc1ccc(C(=O)Nc2sc3c(c2C(N)=O)CCCC3)cc1OC`, the growth inhibition in assay [1] amounted to 42.2%; in assay [2], 3.09%.
For the compound `COc1cc(OC)c2c(=O)[nH]c(-c3cc(C)c(OCCO)c(C)c3)nc2c1`, the figures for the growth inhibition in assay [1] and in assay [2] were 13.5% and 7.45%, respectively.
For `COc1cc2nccc(Oc3ccc(NC(=O)C4(C(=O)Nc5ccc(F)cc5)CC4)cc3)c2cc1OC` the same measures were 38.1% and 61.6%.
As for `O=C(Nc1ccccc1Br)N[C@@H]1CCN(c2ccc(C(F)(F)F)cn2)C1`, the figures for the growth inhibition in assay [1] and in assay [2] were 40.7% and 60.6%, respectively.
As for `CNCCc1ccccn1` [Betahistine 2HCl], the growth inhibition in assay [1] was less than 0%; in assay [2] it was 5.56%.
Regarding `CN1CCC[C@@H]1Cc1c[nH]c2ccc(CCS(=O)(=O)c3ccccc3)cc12` [Eletriptan HBr], the growth inhibition was less than 0% in assay [1] and 1.55% in assay [2].
Turning to `O=C(/C=C/c1ccc(CN(CCO)CCc2c[nH]c3ccccc23)cc1)NO` [LAQ824 (Dacinostat)], the growth inhibition in assay [1] came out at 95%; in assay [2], 97.2%.
On to `Cc1cc(C)c2c(c1)[C@@H](N(Cc1cc(C(F)(F)F)cc(C(F)(F)F)c1)c1nnn(C)n1)CCCN2C[C@H]1CC[C@H](C(=O)O)CC1`, for which the results for the growth inhibition in assay [1] and in assay [2] were 2.81% and 7.07%, respectively.
Regarding `C[N+](C)(C)CCOC(=O)CCC(=O)OCC[N+](C)(C)C` [Succinylcholine Chloride Dihydrate], the growth inhibition was 40.5% in assay [1] and less than 0% in assay [2].
As to `CN1CC2c3ccccc3Oc3ccc(Cl)cc3C2C1` (stereo unspecified) [Asenapine], the values for the growth inhibition in assay [1] and in assay [2] were 8.22% and 28.8%, respectively.

For the origin of these results see the supplement of paper PMC7266297.
